Measurements as given in PubChem BioAssay AID463173 (ICCB-Longwood Screening Facility, Harvard Medical School, 2010).
Out of some 52,000 compounds screened, about 4,300 (8.3%) were called active. Rule as the data show it: active = survival mostly below about 52% (no sharp cut-off); inactive = mostly above about 56%. The list shows a part of the results.

What follows are compounds tested on DeltatarO mutant (assay: S. aureus survival, RN4220 and DeltatarO strains – OD600, teichoic acid synthesis inhibitors, primary screen (AID 463173)). Conditions: S. aureus RN4220 wild type/DeltatarO growth, OD600, 18 h, hits give low values, screened at 18.75 µg/mL (by protocol).

Q: For `Cc1cccc(CCn2c(=O)c3ccccc3n(Cc3ccccc3C)c2=O)c1`, which survival is on record?
A: inactive: 72%

Q: For `COc1cccc(NC(=O)CN2C=NS(=O)(=O)c3ccccc32)c1`, which survival is on record?
A: inactive: 122%

Q: For `Cc1ccc(C(=O)c2sc(Nc3ccc(F)cc3)c(C#N)c2N)cc1`, which survival is on record?
A: inactive: 63%

Q: With `COc1cccc(-c2nc3c(c(SCC(=O)Nc4cccc(C)c4C)n2)Cc2c(CO)cnc(C)c2O3)c1` as the compound, how does the survival read?
A: inactive: 118%

Q: `CCOc1ccccc1NC(=O)N1CC(C)Oc2ccc(Cl)cc21` (stereo unspecified) was tested. Which survival did it give?
A: inactive: 54%

Q: `CCOC(=O)c1cnc(NCc2ccc(OC)cc2OC)c2ccccc12` was tested. Which survival did it give?
A: inactive: 86%

Q: `Cc1ccc(OC(=O)CSc2nnc(-c3ccc4c(c3)OCO4)o2)c(C)c1` was tested. Which survival did it give?
A: inactive: 63%

Q: Which survival does the source give for `COc1ccc2c(c1)c1c(c(=O)n(Cc3ccccc3)c(=O)n1CC(=O)Nc1ccccc1F)n2C` here?
A: inactive: 109%

Q: With `Cc1cccn2c(=O)cc(COc3ccc(NC(=O)COc4ccc(F)cc4)cc3)nc12` as the compound, how does the survival read?
A: inactive: 89%

Q: `CC(C)CC(O)(CC(C)C)C(=O)NNc1ccccc1` was tested. Which survival did it give?
A: inactive: 75%

Q: How did the survival turn out when `Cc1cc(C)c2oc(C(=O)NCCc3ccc(S(N)(=O)=O)cc3)cc(=O)c2c1` was run?
A: inactive: 63%

Q: Which survival does the source give for `CC(C)(C)c1ccc(C(=O)NC2=NC(c3cccc(F)c3)CC(=O)N2)cc1` (stereo unspecified) here?
A: inactive: 52%

Q: How did the survival turn out when `O=C1CC(c2ccccc2)Cc2[nH]c(=O)c(-c3nc(-c4ccc(Cl)c(Cl)c4)cs3)cc21` (stereo unspecified) was run?
A: inactive: 94%

Q: `COc1ccc(Cl)cc1NC(=O)C(=O)NCc1ccc(Cl)cc1` was tested. Which survival did it give?
A: inactive: 150%

Q: `CCOC(=O)Cc1nn(CC)c(=O)c2ccccc12` was tested. Which survival did it give?
A: inactive: 76%

Q: How did the survival turn out when `O=C(CNS(=O)(=O)c1ccc(Br)s1)N1CCN(c2ccc(F)cc2)CC1` was run?
A: active: 27%

Q: `CCS(=O)(=O)NCCc1sc2nc(-c3ccc(OC)cc3)nn2c1C` was tested. Which survival did it give?
A: inactive: 72%

Q: For `Cc1ccc(NC(=O)N2CCN(C(=O)c3nsc4ccccc34)CC2)cc1C`, which survival is on record?
A: active: -5%

Q: For `COCCNS(=O)(=O)c1cc(-c2nn3c(C)nnc3c3ccccc23)ccc1C`, which survival is on record?
A: inactive: 64%

Q: How did the survival turn out when `CCCCN(CC)CCNC(=O)Cn1cnc2sc(C)c(S(=O)(=O)N3CCN(c4ccccc4OC)CC3)c2c1=O` was run?
A: inactive: 84%

Q: `CCOc1ccc2nc(N3CCCC(C(=O)NCCc4ccc(OC)cc4OC)C3)sc2c1` (stereo unspecified) was tested. Which survival did it give?
A: inactive: 62%

Q: `CCOc1ccc(N2CC(c3nc4ccccc4n3CCOc3ccc(OC)cc3)CC2=O)cc1` (stereo unspecified) was tested. Which survival did it give?
A: active: 47%

Q: How did the survival turn out when `Cc1cc2nc(-c3ccc(NC(=O)c4ccc(OCC(C)C)cc4)cc3)oc2cc1C` was run?
A: inactive: 78%

Q: `O=C(Nc1ccc(F)c(Cl)c1)c1cc(S(=O)(=O)NCc2ccc3c(c2)OCO3)ccc1F` was tested. Which survival did it give?
A: inactive: 122%

Q: How did the survival turn out when `CNC(=O)C1CCCN(c2nnc(C)c3c(C)n(-c4ccccc4)nc23)C1` (stereo unspecified) was run?
A: inactive: 84%

Q: With `NC(=O)c1cc(N)ccc1N1CCCC1` as the compound, how does the survival read?
A: inactive: 84%

Q: `COc1ccc(-c2nc3sc(CCNC(=O)C(C)(C)C)c(C)n3n2)cc1` was tested. Which survival did it give?
A: inactive: 89%

Q: With `O=C(O)CCc1ccc(-c2ccc(Br)cc2)n1-c1ccccc1O` as the compound, how does the survival read?
A: inactive: 64%

Q: With `CCOC(=O)C1CCN(c2cc3c(cc2NC(=O)c2ccccc2Cl)n(C)c(=O)n3C)CC1` as the compound, how does the survival read?
A: inactive: 76%

Q: `CC1CCC2(CC1)Nc1ccccc1S2` (stereo unspecified) was tested. Which survival did it give?
A: inactive: 105%

Q: How did the survival turn out when `Cc1c(NC(=O)Nc2cccc(C(F)(F)F)c2)sc2nc3n(c(=O)c12)CCC(C)CC3` (stereo unspecified) was run?
A: inactive: 94%

Q: How did the survival turn out when `COc1ccc(/C=C/c2nc(C#N)c(N3CCC(C(N)=O)CC3)o2)cc1OC` was run?
A: inactive: 117%

Q: `Cc1ccc(-c2nc(CS(=O)(=O)CC(=O)NC(C)CCc3ccccc3)c(C)o2)cc1` (stereo unspecified) was tested. Which survival did it give?
A: inactive: 63%

Q: With `CC(C)CN(c1ccccc1)S(=O)(=O)c1nnc(NC(=O)C2CCCCC2)s1` as the compound, how does the survival read?
A: inactive: 51%

Q: How did the survival turn out when `O=C(NCCO)C(=O)NCC(c1ccc2c(c1)OCO2)N1CCOCC1` (stereo unspecified) was run?
A: inactive: 75%

Q: Which survival does the source give for `O=C(CCS(=O)(=O)c1ccccc1)N(Cc1cccnc1)c1nc2c(F)cccc2s1` here?
A: inactive: 83%

Q: With `COc1ccc(C(CC(=O)Nc2ccccn2)N2Cc3ccccc3C2=O)cc1OC` (stereo unspecified) as the compound, how does the survival read?
A: inactive: 102%

Q: How did the survival turn out when `CCOC(=O)c1nnc2c(-c3ccc(Cl)cc3)c(C)nn2c1N` was run?
A: inactive: 78%

Q: With `CCc1ccccc1NC(=O)Cn1nnc(C(=O)NCc2ccco2)c1N` as the compound, how does the survival read?
A: inactive: 93%

Q: With `CC(NC(=O)CCc1cn(Cc2ccccc2Cl)c2ccccc12)c1ccccc1` (stereo unspecified) as the compound, how does the survival read?
A: inactive: 58%

Q: `O=C(NCCc1ccccc1)c1ccc(CSc2nc3cccnc3n2Cc2ccccc2)cc1` was tested. Which survival did it give?
A: inactive: 94%

Q: How did the survival turn out when `Cc1cc2c(cc1S(=O)(=O)CCC(=O)N1CCN(c3ccccc3)CC1)OCC(=O)N2` was run?
A: inactive: 89%

Q: For `CCCCCOC(=O)CSc1nc2sc3c(c2c(=O)n1Cc1ccccc1)CC(C)(CC)OC3` (stereo unspecified), which survival is on record?
A: active: 46%

Q: With `CCS(=O)(=O)N1CC(=O)N(c2cc(Cl)ccc2C)C(C)(C(=O)NC2CCCCCC2)C1` (stereo unspecified) as the compound, how does the survival read?
A: inactive: 99%

Q: For `C=CCn1c(Br)nc2c1c(=O)n(C)c(=O)n2C`, which survival is on record?
A: inactive: 73%

Q: Which survival does the source give for `COc1ccc(-c2nc3scc(CCNS(=O)(=O)c4cccs4)n3n2)cc1` here?
A: active: 6%

Q: `COc1ccc(CNC(=O)CCc2c(C)nn(-c3ccc(N4CCCC4)nn3)c2C)cc1` was tested. Which survival did it give?
A: inactive: 80%

Q: For `Cc1ccc(-n2c(=O)c3c4c(sc3n(CC(=O)C(C)(C)C)c2=O)CCCCC4)cc1C`, which survival is on record?
A: inactive: 89%

Q: With `COc1cc(Cl)c(NS(=O)(=O)c2cc3[nH]c(=O)c(=O)[nH]c3cc2C)c(OC)c1` as the compound, how does the survival read?
A: inactive: 120%

Q: Which survival does the source give for `CCOC(=O)N1CCN(C(=S)Nc2ccc3nsnc3c2)CC1` here?
A: inactive: 97%

Q: For `COc1ccc(Br)cc1CNCc1c(C(=O)O)c(C)n(Cc2ccccc2C)c1C`, which survival is on record?
A: inactive: 65%

Q: How did the survival turn out when `Cc1nc2cccnc2n1-c1cccc(C(=O)NCc2cccc(Cl)c2)c1` was run?
A: inactive: 85%

Q: How did the survival turn out when `CCC(=O)N1CCc2cc(Br)cc(S(=O)(=O)NCCc3ccc(C)cc3)c21` was run?
A: inactive: 85%

Q: `CCCN(C(=O)c1cc2c(s1)-c1ccccc1OC2)c1ccc(C(C)C)cc1` was tested. Which survival did it give?
A: active: -3%

Q: Which survival does the source give for `Cc1cccc(OC(=O)c2snnc2C)c1C` here?
A: inactive: 82%

Q: `CCc1ccc(Nc2nc(-c3cc4cccc(OC)c4oc3=O)c(CC)s2)cc1` was tested. Which survival did it give?
A: inactive: 113%

Q: For `CCOC(=O)c1ccc(NC(=O)Nc2cc3c(cc2N2CCCCC2)n(CC)c(=O)n3CC)cc1`, which survival is on record?
A: active: 57%

Q: `c1cc2c(cc1CNc1ccc(N3CCOCC3)cc1)OCO2` was tested. Which survival did it give?
A: inactive: 68%

Q: With `CCOC(=O)Cc1ccc(NC(=O)Nc2nnc(N3CCCCC3C)s2)cc1` (stereo unspecified) as the compound, how does the survival read?
A: inactive: 76%

Q: `CN=C1SC(CC(=O)NC(N)=O)C(=O)N1C` (stereo unspecified) was tested. Which survival did it give?
A: inactive: 90%

Q: For `O=C(Nc1ccc2c(c1)CCCN2C(=O)c1cccs1)c1ccccc1C(F)(F)F`, which survival is on record?
A: inactive: 89%

Q: Which survival does the source give for `COC(=O)c1ccc(NC(=O)c2c(-c3ccccc3)c(-c3ccccc3)nn(C)c2=O)cc1` here?
A: inactive: 58%

Q: With `O=S(=O)(Nc1ccc(OC(F)(F)F)cc1)c1ccc(N2CCCCS2(=O)=O)cc1` as the compound, how does the survival read?
A: inactive: 78%

Q: For `CCc1cccc(C)c1Nc1c(-c2cccs2)nc2ncccn12`, which survival is on record?
A: inactive: 73%

Q: For `OCCN(CCO)CC(O)Cn1c2ccc(Br)cc2c2cc(Br)ccc21` (stereo unspecified), which survival is on record?
A: active: 2%

Q: `O=C(Cn1c(=O)c2ccccc2n(CC(=O)Nc2ccccc2F)c1=O)NCCc1ccccc1` was tested. Which survival did it give?
A: inactive: 80%

Q: With `Cc1cc(C)c(NC(=O)CCN2CCCCC2)c(C)c1` as the compound, how does the survival read?
A: inactive: 86%

Q: Which survival does the source give for `CC(C)c1ccc(S(=O)(=O)NCc2nc3cccnc3n2Cc2ccc(F)cc2)cc1` here?
A: inactive: 88%

Q: With `Cn1cnnc1SCCOc1ccc(Cl)cc1` as the compound, how does the survival read?
A: inactive: 103%

Q: How did the survival turn out when `COc1ccc(N2CCN(C(=O)CSc3nnc4c(C)cc5cc6c(cc5n34)OCCO6)CC2)cc1` was run?
A: inactive: 86%

Q: With `CC1=C(C(=O)Nc2cc(C)cc(C)c2)C2(CCCCC2)OC1=O` as the compound, how does the survival read?
A: inactive: 90%

Q: For `O=C(Nc1ccc(F)c(F)c1)c1ccc(=O)n(Cc2ccc(F)cc2)c1`, which survival is on record?
A: inactive: 112%

Q: Which survival does the source give for `COc1ccc(NC(=O)COCc2cc(-c3ccco3)on2)cc1Cl` here?
A: inactive: 112%

Q: `COc1ccc(-c2nnn(CC(=O)N(CC(=O)NC3CCCC3)c3ccccc3)n2)cc1OC` was tested. Which survival did it give?
A: inactive: 93%

Q: With `Cc1ccc(NC(=O)C2CCC(CNS(=O)(=O)c3cccs3)CC2)cc1C` (stereo unspecified) as the compound, how does the survival read?
A: inactive: 94%

Q: How did the survival turn out when `CCOC(=O)C1CCN(C(=O)c2ccc(C)c(NC(=O)c3nsc4ccccc34)c2)CC1` was run?
A: inactive: 88%

Q: Which survival does the source give for `CCC(=O)N1c2ccc(S(=O)(=O)CCC(=O)NCc3ccc(OC)cc3)cc2CC1C` (stereo unspecified) here?
A: inactive: 117%

Q: `CCN1CCN(C(C)C(=O)Nc2ncc(C)s2)CC1` (stereo unspecified) was tested. Which survival did it give?
A: inactive: 72%

Q: How did the survival turn out when `CCc1ccc2c(c1)c(=O)c(S(=O)(=O)c1ccc(F)cc1)cn2CC(=O)Nc1ccccc1OC` was run?
A: inactive: 84%

Q: How did the survival turn out when `O=C1C2C3C=CC(C3)C2C(=O)N1CCCCN1C(=O)C2C3C=CC(C3)C2C1=O` (stereo unspecified) was run?
A: inactive: 93%

Q: `CC1(C)CC2=NNC(c3ccccc3)C2CO1` (stereo unspecified) was tested. Which survival did it give?
A: inactive: 77%

Q: How did the survival turn out when `Cc1ccc(NC(=O)c2oc3ccccc3c2NC(=O)C2CCCCC2)cc1` was run?
A: active: 2%

Q: Which survival does the source give for `CCc1ccc(-n2c(=O)c3sc4ccccc4c3n(CC(=O)NC3CCCC3)c2=O)cc1` here?
A: inactive: 77%

Q: Which survival does the source give for `COc1cc(OC)c(NC(=O)CCc2nc(C3=CCN(Cc4cccc(Cl)c4)CC3)no2)cc1Cl` here?
A: inactive: 75%

Q: How did the survival turn out when `COc1ccc(CCNC(=O)CCc2c(C)c3ccc(O)c(C)c3oc2=O)cc1` was run?
A: inactive: 107%

Q: For `Cc1nc2nc(CNC(=O)OC(C)(C)C)nn2c(C)c1CCC(=O)NCc1ccccc1Cl`, which survival is on record?
A: inactive: 80%

Q: `Nc1nc(N)c(S(=O)(=O)c2ccccc2)c(Nc2ccccc2)n1` was tested. Which survival did it give?
A: inactive: 69%

Q: How did the survival turn out when `COc1cccc(C2C(=O)N(C3CCCCC3)CC(=O)N2CCc2ccc(OC)c(OC)c2)c1` (stereo unspecified) was run?
A: inactive: 91%

Q: How did the survival turn out when `CCOC(=O)c1[nH]c2ccccc2c1N=CN(C)C` was run?
A: inactive: 97%

Q: With `CCCC12CN3CC(CCC)(CN(C1)C3c1c[nH]c3ccc(OC)cc13)C2=O` (stereo unspecified) as the compound, how does the survival read?
A: inactive: 88%

Q: With `O=C(CN1C(=O)CCSc2ccc(S(=O)(=O)N3CCCC3)cc21)Nc1ccccc1Cl` as the compound, how does the survival read?
A: inactive: 96%
